Consider 32 variants from the GPR68 mutational scans of Howard et al. (2025).

Scores whose standard error is large were omitted. Two further conditions of the source, in which the scores hardly spread, are not listed. Names with del lack the residues named; names with ins carry added residues between the positions named. For some assays here: How much ogerin was present is not stated here.

B1: GPR68, Q15743 (parent)
chain: MGNITADNSSMSCTIDHTIHQTLAPVVYVTVLVVGFPANCLSLYFGYLQIKARNELGVYLCNLTVADLFYICSLPFWLQYVLQHDNWSHGDLSCQVCGILLYENIYISVGFLCCISVDRYLAVAHPFRFHQFRTLKAAVGVSVVIWAKELLTSIYFLMHEEVIEDENQHRVCFEHYPIQAWQRAINYYRFLVGFLFPICLLLASYQGILRAVRRSHGTQKSRKDQIQRLVLSTVVIFLACFLPYHVLLLVRSVWEASCDFAKGVFNAYHFSLLLTSFNCVADPVLYCFVSETTHRDLARLRGACLAFLTCSRTGRAREAYPLGAPEASGKSGAQGEEPELLTKLHPAFQTPNSPGSGGFPTGRLA

Variants of B1 are the subject of data set [1]. The experiment in a line: cAMP reporter score (Enrich2 score, wild type = 0); higher = more signal; HEK293T, FACS bins.
Variants of B1 are the subject of data set [2]. Kind of data set: surface expression score (Enrich2 score, wild type = 0); higher = more signal; HEK293T, FACS bins.

For the variant F132S, the cAMP reporter score in data set [1] (pH 5.5) was -1.06; in data set [1] (pH 6) it was -0.353; in data set [1] (pH 6, modulator: ogerin) it was -0.985; in data set [1] (pH 6.5, modulator: ogerin) it was -1.2. Moreover, the surface expression score in data set [2] is -1.45.
On the same counts, the results for F132V are 0.163, -0.736, 0.221, 0.252 and -0.625.
F132N: the cAMP reporter score in data set [1] (pH 5.5) is -1.69; in data set [1] (pH 6), -2.95; in data set [1] (pH 6, modulator: ogerin), -1.33; in data set [1] (pH 6.5, modulator: ogerin) it was -0.988.
Consider R133E, for which the cAMP reporter score in data set [1] (pH 5.5) is -1.56; in data set [1] (pH 6, modulator: ogerin), -2.98; in data set [1] (pH 6.5, modulator: ogerin), -1.8. In data set [2], the surface expression score was -1.34.
As for R133G, the cAMP reporter score in data set [1] (pH 5.5) was -1.86; in data set [1] (pH 6), -1.57; in data set [1] (pH 6, modulator: ogerin), -2.51; in data set [1] (pH 6.5, modulator: ogerin) it was -2.16. In addition, in data set [2], the surface expression score was -1.8.
On the same counts, the results for R133I are -0.766, -0.987, -1.44, -1.34 and -2.72.
R133D: the cAMP reporter score in data set [1] (pH 5.5) is -1.72; in data set [1] (pH 6) it was -1.17. Besides, in data set [2], the surface expression score is -1.98.
For R133K, the cAMP reporter score was 0.001 in data set [1] (pH 5.5); -0.915 in data set [1] (pH 6); -0.278 in data set [1] (pH 6, modulator: ogerin); -1.11 in data set [1] (pH 6.5, modulator: ogerin). For the same variant, the surface expression score in data set [2] is -0.337.
Regarding R133V, the cAMP reporter score in data set [1] (pH 5.5) is -1.43; in data set [1] (pH 6), -1.36; in data set [1] (pH 6, modulator: ogerin), -2.09; in data set [1] (pH 6.5, modulator: ogerin) it was -0.556. Besides, the surface expression score in data set [2] is -2.65.
On the same counts, the results for R133Q are -1.14, -0.502, -1.22, -1.03 and -0.896.
R133S: the cAMP reporter score was -1.22 in data set [1] (pH 5.5); -0.983 in data set [1] (pH 6); -1.23 in data set [1] (pH 6.5, modulator: ogerin). Moreover, in data set [2], the surface expression score is -1.99.
Turning to R133C, the cAMP reporter score in data set [1] (pH 5.5) was -2.12; in data set [1] (pH 6), -0.601; in data set [1] (pH 6, modulator: ogerin), -1.67; in data set [1] (pH 6.5, modulator: ogerin), -1.39. Further, in data set [2], the surface expression score was -2.35.
On to R133M, for which the cAMP reporter score in data set [1] (pH 5.5) is -1.17; in data set [1] (pH 6), 0.282; in data set [1] (pH 6.5, modulator: ogerin) it was -0.797. Besides, the surface expression score in data set [2] is -0.88.
On to R133L, for which the cAMP reporter score was -1.66 in data set [1] (pH 5.5); -1.96 in data set [1] (pH 6); -1.67 in data set [1] (pH 6, modulator: ogerin); -1.56 in data set [1] (pH 6.5, modulator: ogerin). The surface expression score in data set [2] is -1.8.
On to R133Y, for which the cAMP reporter score is -0.568 in data set [1] (pH 5.5); -3.13 in data set [1] (pH 6, modulator: ogerin); -1.23 in data set [1] (pH 6.5, modulator: ogerin).
For the variant R133P, the cAMP reporter score in data set [1] (pH 5.5) was -0.609; in data set [1] (pH 6.5, modulator: ogerin) it was -1. In data set [2], the surface expression score is -2.49.
As for R133F, the cAMP reporter score is -1.59 in data set [1] (pH 5.5); -0.853 in data set [1] (pH 6); -1.89 in data set [1] (pH 6, modulator: ogerin); -1.03 in data set [1] (pH 6.5, modulator: ogerin). Further, in data set [2], the surface expression score was -1.98.
The corresponding values for R133A are -1.7, -2.05, -1.43, -1.32 and -2.35.
The corresponding values for R133N are -1.87, -0.647, -1.66, -1.41 and -2.58.
As for R133T, the cAMP reporter score is -2.27 in data set [1] (pH 5.5); 0.747 in data set [1] (pH 6); -0.615 in data set [1] (pH 6, modulator: ogerin); -1.18 in data set [1] (pH 6.5, modulator: ogerin).
Regarding R133H, the cAMP reporter score in data set [1] (pH 5.5) is -0.028; in data set [1] (pH 6) it was -1.06; in data set [1] (pH 6, modulator: ogerin), -0.612; in data set [1] (pH 6.5, modulator: ogerin), -0.445. In addition, in data set [2], the surface expression score is -0.374.
On the same counts, the results for R133W are -1, -0.28, -1.11, -0.96 and -1.21.
V141_S142insGSG: the cAMP reporter score in data set [1] (pH 5.5) was -2.24; in data set [1] (pH 6) it was -0.79; in data set [1] (pH 6, modulator: ogerin), -1.91; in data set [1] (pH 6.5, modulator: ogerin), -1.05. Further, in data set [2], the surface expression score was -2.19.
For the variant A138_V139insGSG, the cAMP reporter score in data set [1] (pH 5.5) is -1.63; in data set [1] (pH 6, modulator: ogerin) it was -1.25; in data set [1] (pH 6.5, modulator: ogerin), -0.85. Also, in data set [2], the surface expression score was -2.04.
Regarding V139F, the cAMP reporter score was 0.824 in data set [1] (pH 5.5); 0.202 in data set [1] (pH 6); 0.47 in data set [1] (pH 6, modulator: ogerin); -0.897 in data set [1] (pH 6.5, modulator: ogerin). Besides, the surface expression score in data set [2] is -0.017.
As to V139I, the cAMP reporter score in data set [1] (pH 5.5) was -0.223; in data set [1] (pH 6, modulator: ogerin) it was 0.126; in data set [1] (pH 6.5, modulator: ogerin), 0.063. For the same variant, the surface expression score in data set [2] is -0.561.
Consider V139C, for which the cAMP reporter score is -0.48 in data set [1] (pH 5.5); -1.02 in data set [1] (pH 6); -0.289 in data set [1] (pH 6, modulator: ogerin); 0.198 in data set [1] (pH 6.5, modulator: ogerin). In data set [2], the surface expression score was -0.282.
On the same counts, the results for V139L are -0.657, -0.534, -0.803, -0.832 and -0.821.
On the same counts, the results for V139G are 0.625, -0.422, -0.575, -0.49 and -2.17.
As for V139M, the cAMP reporter score is -1.65 in data set [1] (pH 5.5); -0.95 in data set [1] (pH 6); -1.41 in data set [1] (pH 6, modulator: ogerin); -1.33 in data set [1] (pH 6.5, modulator: ogerin). Besides, the surface expression score in data set [2] is -1.59.
With V139W, the cAMP reporter score was 0.408 in data set [1] (pH 5.5); 0.919 in data set [1] (pH 6, modulator: ogerin); 1.1 in data set [1] (pH 6.5, modulator: ogerin). In data set [2], the surface expression score turned out to be 0.962.
In the case of V139Y, the cAMP reporter score is -0.105 in data set [1] (pH 5.5); 0.069 in data set [1] (pH 6); 0.151 in data set [1] (pH 6, modulator: ogerin); -0.538 in data set [1] (pH 6.5, modulator: ogerin). Besides, in data set [2], the surface expression score was -0.496.
